Among the data in ChEMBL document CHEMBL1201862, “PubChem BioAssay data set” (2004) are CC50 and IC50 values, retold here.

Molecules are shown by their SMILES. Activity calls are given as the source filed them.

The test system of experiment [1] is Vero. In words: cells. Conditions: Chlorocebus sabaeus. In kind it is functional.
In experiment [2] the target is T1, Nuclear receptor subfamily 0 group B member 1 (Homo sapiens, UniProt P51843).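 Further: HEK293T cells transfected with SF-1 and DAX-1 plus StAR promoter luciferase reporter.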
T1 sequence (P51843 whole entry): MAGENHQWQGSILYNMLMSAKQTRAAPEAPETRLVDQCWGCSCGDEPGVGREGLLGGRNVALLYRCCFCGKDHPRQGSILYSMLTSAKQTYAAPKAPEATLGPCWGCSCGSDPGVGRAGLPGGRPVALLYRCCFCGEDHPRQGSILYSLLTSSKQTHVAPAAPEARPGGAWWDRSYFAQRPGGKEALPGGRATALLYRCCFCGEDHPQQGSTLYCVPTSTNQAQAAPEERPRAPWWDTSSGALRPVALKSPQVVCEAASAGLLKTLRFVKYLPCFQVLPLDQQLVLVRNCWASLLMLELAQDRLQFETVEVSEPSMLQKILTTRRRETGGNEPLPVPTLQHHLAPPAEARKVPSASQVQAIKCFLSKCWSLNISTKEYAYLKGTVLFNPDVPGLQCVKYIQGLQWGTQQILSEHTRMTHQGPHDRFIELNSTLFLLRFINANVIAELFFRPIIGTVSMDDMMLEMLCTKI
Type of experiment: functional, cell-based.

Experiment [3] is described as follows: cells. In kind it is functional, cell-based.

For `COc1cc2c(c(OC)c1OC)-c1ccc(OC)c(=O)cc1C(N)CC2` (stereo not drawn), in experiment [1], the CC50 was active: 0.45 µM. The IC50 in experiment [2] and in experiment [3] was inactive: > 67.6 µM each time.
